# Changes are numbered by the printed parent chain; changes in the protein carry UniProt numbers. This is one part of the list.
# T1: RBFOX1 RRM (Homo sapiens, UniProt Q9NWB1 109-208)
# T1 sequence: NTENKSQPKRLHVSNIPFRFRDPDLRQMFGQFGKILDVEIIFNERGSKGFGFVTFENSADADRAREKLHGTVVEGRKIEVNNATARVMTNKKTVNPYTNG
# B1: GGAGGCG (DNA:RNA)
# RNA: GGGAGACCGGAAUUCAGAUUGUCCGGAGGCGUUAAAUCCCGUCGUAGCCACCA
# DNA 1: CAATCTGAATTCCGGTCTCCC
# DNA 2: TGGTGGCTACGACGGGATT
# B2: CAGUACA (DNA:RNA)
# RNA: B1 RNA with G25C, G26A, A27G, G28U, G29A, G31A
# DNA 1: CAATCTGAATTCCGGTCTCCC
# DNA 2: TGGTGGCTACGACGGGATT
# B3: CUCAUCG (DNA:RNA)
# RNA: B1 RNA with G25C, G26U, A27C, G28A, G29U
# DNA 1: CAATCTGAATTCCGGTCTCCC
# DNA 2: TGGTGGCTACGACGGGATT
# B4: GCGCGGC (DNA:RNA)
# RNA: B1 RNA with G26C, A27G, G28C, C30G, G31C
# DNA 1: CAATCTGAATTCCGGTCTCCC
# DNA 2: TGGTGGCTACGACGGGATT
# B5: GACCUUU (DNA:RNA)
# RNA: B1 RNA with G26A, A27C, G28C, G29U, C30U, G31U
# DNA 1: CAATCTGAATTCCGGTCTCCC
# DNA 2: TGGTGGCTACGACGGGATT
# B6: UUUCAUU (DNA:RNA)
# RNA: GGGAGACCGGAAUUCAGAUUGUCCUUUCAUUUUAAAUCCCGUCGUAGCCACCA
# DNA 1: CAATCTGAATTCCGGTCTCCC
# DNA 2: TGGTGGCTACGACGGGATT
# B7: CAGGGGU (DNA:RNA)
# RNA: B1 RNA with G25C, G26A, A27G, C30G, G31U
# DNA 1: CAATCTGAATTCCGGTCTCCC
# DNA 2: TGGTGGCTACGACGGGATT
# B8: GUAACUU (DNA:RNA)
# RNA: B6 RNA with U25G, U27A, C28A, A29C
# DNA 1: CAATCTGAATTCCGGTCTCCC
# DNA 2: TGGTGGCTACGACGGGATT
# B9: UUCCAAC (DNA:RNA)
# RNA: B6 RNA with U27C, U30A, U31C
# DNA 1: CAATCTGAATTCCGGTCTCCC
# DNA 2: TGGTGGCTACGACGGGATT
# B10: GUCUUUU (DNA:RNA)
# RNA: B6 RNA with U25G, U27C, C28U, A29U
# DNA 1: CAATCTGAATTCCGGTCTCCC
# DNA 2: TGGTGGCTACGACGGGATT
# B11: AAUUACG (DNA:RNA)
# RNA: B1 RNA with G25A, G26A, A27U, G28U, G29A
# DNA 1: CAATCTGAATTCCGGTCTCCC
# DNA 2: TGGTGGCTACGACGGGATT
# B12: CCUCGUU (DNA:RNA)
# RNA: B6 RNA with U25C, U26C, A29G
# DNA 1: CAATCTGAATTCCGGTCTCCC
# DNA 2: TGGTGGCTACGACGGGATT
# B13: UCGUGUC (DNA:RNA)
# RNA: B6 RNA with U26C, U27G, C28U, A29G, U31C
# DNA 1: CAATCTGAATTCCGGTCTCCC
# DNA 2: TGGTGGCTACGACGGGATT
# B14: GAGCGCU (DNA:RNA)
# RNA: B1 RNA with G26A, A27G, G28C, G31U
# DNA 1: CAATCTGAATTCCGGTCTCCC
# DNA 2: TGGTGGCTACGACGGGATT
# B15: GCAUAUA (DNA:RNA)
# RNA: B1 RNA with G26C, G28U, G29A, C30U, G31A
# DNA 1: CAATCTGAATTCCGGTCTCCC
# DNA 2: TGGTGGCTACGACGGGATT
# B16: GGAGGCC (DNA:RNA)
# RNA: B1 RNA with G31C
# DNA 1: CAATCTGAATTCCGGTCTCCC
# DNA 2: TGGTGGCTACGACGGGATT
# B17: CCCCCUU (DNA:RNA)
# RNA: B6 RNA with U25C, U26C, U27C, A29C
# DNA 1: CAATCTGAATTCCGGTCTCCC
# DNA 2: TGGTGGCTACGACGGGATT
# B18: UCCAGAG (DNA:RNA)
# RNA: B1 RNA with G25U, G26C, A27C, G28A, C30A
# DNA 1: CAATCTGAATTCCGGTCTCCC
# DNA 2: TGGTGGCTACGACGGGATT
# B19: UACACGC (DNA:RNA)
# RNA: B6 RNA with U26A, U27C, C28A, A29C, U30G, U31C
# DNA 1: CAATCTGAATTCCGGTCTCCC
# DNA 2: TGGTGGCTACGACGGGATT
# B20: CUUGGUG (DNA:RNA)
# RNA: B1 RNA with G25C, G26U, A27U, C30U
# DNA 1: CAATCTGAATTCCGGTCTCCC
# DNA 2: TGGTGGCTACGACGGGATT
# Biological target: T1, RBFOX1 RRM
# Assay: EMSA; HiTS-Eq, 1 nM pool, 10 min; buffer printed only for the single-RNA assays: 10 mM Tris pH 7.5, 150 mM NaCl, 3.4 mM EDTA, 0.001% NP-40, 30 C
# Conditions: tags: His6 N-terminal (pET28a); label: 5' 32P
# Outline: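 Relative association constants, normalised to the cognate motif, were derived by comparing read counts of each RNA species with those of the control reaction. The RNA sequenced was the free fraction, separated by 8% native PAGE after a 10 min equilibration in 50 µL of 1 nM 5′-radiolabelled RNA (7 randomized nucleotides) with increasing concentrations of purified wild-type or mutant RbFox RRM.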
row,Binder,binding signal
1,B1,0.0203 KA relative to UGCAUGU
2,B2,0.00256 KA relative to UGCAUGU
3,B3,0.00489 KA relative to UGCAUGU
4,B4,0.0209 KA relative to UGCAUGU
5,B5,0.00717 KA relative to UGCAUGU
6,B6,0.00437 KA relative to UGCAUGU
7,B7,0.0132 KA relative to UGCAUGU
8,B8,0.00362 KA relative to UGCAUGU
9,B9,0.00154 KA relative to UGCAUGU
10,B10,0.0163 KA relative to UGCAUGU
11,B11,0.00307 KA relative to UGCAUGU
12,B12,0.0102 KA relative to UGCAUGU
13,B13,0.0187 KA relative to UGCAUGU
14,B14,0.0156 KA relative to UGCAUGU
15,B15,0.0014 KA relative to UGCAUGU
16,B16,0.0168 KA relative to UGCAUGU
17,B17,0.00206 KA relative to UGCAUGU
18,B18,0.0125 KA relative to UGCAUGU
19,B19,0.00712 KA relative to UGCAUGU
20,B20,0.0206 KA relative to UGCAUGU
